Laboratory results as given in US6255100A, “Cyclosporin fermentation process” (Novartis AG, priority 1990, dated 2001).
Part of at least one peptide drawing is inferred or uncertain, most often the ends.

Key:
cyclophilin [1] = biological target: T1, cyclophilin (Homo sapiens, UniProt P62937); test: Competitive ELISA for cyclophilin binding (Binding Ratio relative to Ciclosporin); conditions: log10 of the ratio of IC50 of test compound to IC50 of Ciclosporin in a simultaneous test; negative = binds more strongly than Ciclosporin
T1 sequence (P62937 whole entry): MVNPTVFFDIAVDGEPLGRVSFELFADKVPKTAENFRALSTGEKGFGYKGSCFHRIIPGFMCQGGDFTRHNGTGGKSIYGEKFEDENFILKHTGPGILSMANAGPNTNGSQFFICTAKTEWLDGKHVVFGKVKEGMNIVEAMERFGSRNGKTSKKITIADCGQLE

[2] = test system: Spleen cells from Balb/c mice co-incubated with irradiated spleen cells from CBA mice; test: Mixed Lymphocyte Reaction (MLR), immunosuppressive activity relative to Ciclosporin; format: cell-based; conditions: MLR activity as a percentage of the activity of Ciclosporin in a parallel experiment
cyclophilin [3] = biological target: T1, cyclophilin; test: Blocking of the immunosuppressive action of Ciclosporin (Ciclosporin antagonism)

With `C/C=C/C[C@@H](C)[C@@H](O)[C@H]1C(=O)N[C@@H](CC)C(=O)N(C)CC(=O)N(C)[C@@H](CC(C)C)C(=O)N[C@@H](C(C)C)C(=O)N(C)[C@@H](C)C(=O)N[C@@H](C)C(=O)N[C@H](C)C(=O)N(C)[C@@H](CC(C)C)C(=O)N(C)[C@@H](CC(C)C)C(=O)N(C)[C@@H](C(C)C)C(=O)N1C` [Compound k), [MeAla]^6 -Ciclosporin] the “BR (log10), cyclophilin Binding Ratio” value (cyclophilin [1]) was -0.4 log10 and the “IR (%), Immunosuppressive Ratio” value [2] was 3.2%.
For `C/C=C/C[C@@H](C)[C@@H](O)[C@H]1C(=O)N[C@@H](CC)C(=O)N(C)CC(=O)N(C)[C@@H](CC(C)C)C(=O)N(C)[C@@H](C(C)C)C(=O)N(C)[C@@H](CC(C)C)C(=O)N[C@@H](C)C(=O)N[C@H](C)C(=O)N(C)[C@@H](CC(C)C)C(=O)N(C)[C@@H](CC(C)C)C(=O)N(C)[C@@H](C(C)C)C(=O)N1C` [Compound h), [MeVal]^5 -Ciclosporin], the “BR (log10), cyclophilin Binding Ratio” value (cyclophilin [1]) was 0.4 log10 and the “IR (%), Immunosuppressive Ratio” value [2] was 5.3%.
`C/C=C/C[C@@H](C)[C@@H](O)[C@H]1C(=O)N[C@@H](CC)C(=O)N(C)CC(=O)N(C)[C@@H](CC(C)C)C(=O)N[C@@H](C(C)C)C(=O)N(C)[C@@H](CC(C)C)C(=O)N[C@@H](C)C(=O)N[C@H](C)C(=O)N(C)[C@@H](CC(C)(C)O)C(=O)N(C)[C@@H](CC(C)C)C(=O)N(C)[C@@H](C(C)C)C(=O)N1C` [l), [γ-hydroxy-MeLeu]^9 -Ciclosporin] was tested, and the “BR (log10), cyclophilin Binding Ratio” value (cyclophilin [1]) was 0.15 log10 and the “IR (%), Immunosuppressive Ratio” value [2] was 2.9%.
`CC[C@@H]1NC(=O)[C@H]([C@H](O)[C@H](C)C/C=C/CO)N(C)C(=O)[C@H](C(C)C)N(C)C(=O)[C@H](CC(C)C)N(C)C(=O)[C@H](CC(C)C)N(C)C(=O)[C@@H](C)NC(=O)[C@H](C)NC(=O)[C@H](CC(C)C)N(C)C(=O)[C@H](C(C)C)NC(=O)[C@H](CC(C)C)N(C)C(=O)CN(C)C1=O` [Compound j), [8'-hydroxy-MeBmt]^1 -Ciclosporin] was tested, and the “BR (log10), cyclophilin Binding Ratio” value (cyclophilin [1]) was 0.35 log10 and the “IR (%), Immunosuppressive Ratio” value [2] was 1.8%.
With `C/C=C/C[C@@H](C)[C@@H](O)[C@H]1C(=O)N[C@@H](CCC)C(=O)N(C)CC(=O)N(C)[C@@H](CC(C)(C)O)C(=O)N[C@@H](C(C)C)C(=O)N(C)[C@@H](CC(C)C)C(=O)N[C@@H](C)C(=O)N[C@H](C)C(=O)N(C)[C@@H](CC(C)C)C(=O)N(C)[C@@H](CC(C)C)C(=O)N(C)[C@@H](C(C)C)C(=O)N1C` [Compound f), [Nva]^2-[γ-hydroxy-MeLeu]^4 -Ciclosporin] the “BR (log10), cyclophilin Binding Ratio” value (cyclophilin [1]) was 0.4 log10 and the “IR (%), Immunosuppressive Ratio” value [2] was < 1%.
With `C/C=C/C[C@@H](C)[C@@H](O)[C@H]1C(=O)N[C@@H](CC)C(=O)N(C)CC(=O)N(C)[C@@H](C(C)C)C(=O)N[C@@H](C(C)C)C(=O)N(C)[C@@H](CC(C)C)C(=O)N[C@@H](C)C(=O)N[C@H](C)C(=O)N(C)[C@@H](CC(C)C)C(=O)N(C)[C@@H](CC(C)C)C(=O)N(C)[C@@H](C(C)C)C(=O)N1C` [Compound b), [MeVal]^4 -Ciclosporin] the “BR (log10), cyclophilin Binding Ratio” value (cyclophilin [1]) was 0.1 log10, the “IR (%), Immunosuppressive Ratio” value [2] was < 1% and the “Block of the immunosuppressive action of Ciclosporin by blocking its binding to cyclophilin” value (cyclophilin [3]) was “block the immunosuppressive action of Ciclosporin”.
`C/C=C/C[C@@H](C)[C@@H](O)[C@H]1C(=O)N[C@@H](CC)C(=O)N(C)CC(=O)N(C)[C@@H]([C@@H](C)CC)C(=O)N[C@@H](C(C)C)C(=O)N(C)[C@@H](CC(C)C)C(=O)N[C@@H](C)C(=O)N[C@H](C)C(=O)N(C)[C@@H](CC(C)C)C(=O)N(C)[C@@H](CC(C)C)C(=O)N(C)[C@@H](C(C)C)C(=O)N1C` [Compound c), [MeIle]^4 -Ciclosporin] was tested, and the “BR (log10), cyclophilin Binding Ratio” value (cyclophilin [1]) was -0.2 log10, the “IR (%), Immunosuppressive Ratio” value [2] was < 1% and the “Block of the immunosuppressive action of Ciclosporin by blocking its binding to cyclophilin” value (cyclophilin [3]) was “block the immunosuppressive action of Ciclosporin”.
